# Data: the supplement of paper PMC8728848
# Some of the results follow.
# How the values were obtained:
# Test in all cases: glycan array binding signal (z-score within array); higher = stronger binding
# Conditions in all cases: glycan notation: IUPAC condensed, linker removed
# [1] = biological target: Fuc(a1-2)Gal6S(b1-3)GlcNAc
# Outline: (§1)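 Arrays were curated from the Consortium for Functional Glycomics database, 3228 in total, and kept only where the protein sequence was available. Binding is expressed as a within-array Z-score. This score was averaged across arrays of the same protein sequence at different concentrations or buffers and across linkers, and negative values can be read as non-binding.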
# [2] = biological target: Fuc(a1-2)Gal6S(b1-3)GlcNAc6S
# Outline: as §1
# [3] = biological target: Fuc(a1-2)Gal6S(b1-4)Glc
# Outline: as §1
# [4] = biological target: Fuc(a1-2)Gal6S(b1-4)Glc6S
# Outline: as §1
# [5] = biological target: Fuc(a1-2)GlcNAc
# Outline: as §1
# [6] = biological target: Fuc(a1-2)[Gal(a1-3)]Gal
# Outline: as §1
# [7] = biological target: Fuc(a1-2)[Gal(a1-3)]Gal(b1-3)GalNAc
# Outline: as §1
# [8] = biological target: Fuc(a1-2)[Gal(a1-3)]Gal(b1-3)GalNAc(b1-3)Gal(a1-4)Gal(b1-4)Glc
# Outline: as §1
# [9] = biological target: Fuc(a1-2)[Gal(a1-3)]Gal(b1-3)GlcNAc
# Outline: as §1
# [10] = biological target: Fuc(a1-2)[Gal(a1-3)]Gal(b1-3)GlcNAc(b1-2)Man(a1-3)[Fuc(a1-2)[Gal(a1-3)]Gal(b1-3)GlcNAc(b1-2)Man(a1-6)]Man(b1-4)GlcNAc(b1-4)GlcNAc
# Outline: as §1
# [11] = biological target: Fuc(a1-2)[Gal(a1-3)]Gal(b1-3)GlcNAc(b1-2)Man(a1-3)[Fuc(a1-2)[Gal(a1-3)]Gal(b1-3)GlcNAc(b1-2)Man(a1-6)]Man(b1-4)GlcNAc(b1-4)[Fuc(a1-6)]GlcNAc
# Outline: as §1
# [12] = biological target: Fuc(a1-2)[Gal(a1-3)]Gal(b1-3)GlcNAc(b1-3)GalNAc
# Outline: as §1
# [13] = biological target: Fuc(a1-2)[Gal(a1-3)]Gal(b1-3)GlcNAc(b1-6)GalNAc
# Outline: as §1
# [14] = biological target: Fuc(a1-2)[Gal(a1-3)]Gal(b1-4)Glc
# Outline: as §1
# [15] = biological target: Fuc(a1-2)[Gal(a1-3)]Gal(b1-4)GlcNAc
# Outline: as §1
# [16] = biological target: Fuc(a1-2)[Gal(a1-3)]Gal(b1-4)GlcNAc(b1-2)Man
# Outline: as §1
# [17] = biological target: Fuc(a1-2)[Gal(a1-3)]Gal(b1-4)GlcNAc(b1-2)Man(a1-3)[Fuc(a1-2)[Gal(a1-3)]Gal(b1-4)GlcNAc(b1-2)Man(a1-6)]Man(b1-4)GlcNAc(b1-4)GlcNAc
# Outline: as §1
# [18] = biological target: Fuc(a1-2)[Gal(a1-3)]Gal(b1-4)GlcNAc(b1-2)Man(a1-3)[Fuc(a1-2)[Gal(a1-3)]Gal(b1-4)GlcNAc(b1-2)Man(a1-6)]Man(b1-4)GlcNAc(b1-4)[Fuc(a1-6)]GlcNAc
# Outline: as §1
# [19] = biological target: Fuc(a1-2)[Gal(a1-3)]Gal(b1-4)GlcNAc(b1-3)GalNAc
# Outline: as §1
# [20] = biological target: Fuc(a1-2)[Gal(a1-3)]Gal(b1-4)GlcNAc(b1-6)GalNAc
# Outline: as §1
# [21] = biological target: Fuc(a1-2)[Gal(a1-3)]Gal(b1-4)[Fuc(a1-3)]Glc
# Outline: as §1
# [22] = biological target: Fuc(a1-2)[Gal(a1-3)]Gal(b1-4)[Fuc(a1-3)]GlcNAc
# Outline: as §1
# [23] = biological target: Fuc(a1-2)[Gal(a1-3)]Gal(b1-4)[Fuc(a1-3)]GlcNAc(b1-3)GalNAc
# Outline: as §1
# [24] = biological target: Fuc(a1-2)[Gal(a1-4)]Gal(b1-4)GlcNAc
# Outline: as §1
# [25] = biological target: Fuc(a1-2)[GalNAc(a1-3)]Gal
# Outline: as §1
# [26] = biological target: Fuc(a1-2)[GalNAc(a1-3)]Gal(b1-3)GalNAc(a1-3)[Fuc(a1-2)]Gal(b1-4)GlcNAc
# Outline: as §1
# [27] = biological target: Fuc(a1-2)[GalNAc(a1-3)]Gal(b1-3)GalNAc(b1-3)Gal(a1-4)Gal(b1-4)Glc
# Outline: as §1
# [28] = biological target: Fuc(a1-2)[GalNAc(a1-3)]Gal(b1-3)GlcNAc
# Outline: as §1
# [29] = biological target: Fuc(a1-2)[GalNAc(a1-3)]Gal(b1-3)GlcNAc(b1-2)Man(a1-3)[Fuc(a1-2)[GalNAc(a1-3)]Gal(b1-3)GlcNAc(b1-2)Man(a1-6)]Man(b1-4)GlcNAc(b1-4)GlcNAc
# Outline: as §1
# [30] = biological target: Fuc(a1-2)[GalNAc(a1-3)]Gal(b1-3)GlcNAc(b1-2)Man(a1-3)[Fuc(a1-2)[GalNAc(a1-3)]Gal(b1-3)GlcNAc(b1-2)Man(a1-6)]Man(b1-4)GlcNAc(b1-4)[Fuc(a1-6)]GlcNAc
# Outline: as §1
# [31] = biological target: Fuc(a1-2)[GalNAc(a1-3)]Gal(b1-3)GlcNAc(b1-3)GalNAc
# Outline: as §1
# [32] = biological target: Fuc(a1-2)[GalNAc(a1-3)]Gal(b1-3)GlcNAc(b1-6)GalNAc
# Outline: as §1
# [33] = biological target: Fuc(a1-2)[GalNAc(a1-3)]Gal(b1-4)Glc
# Outline: as §1
# [34] = biological target: Fuc(a1-2)[GalNAc(a1-3)]Gal(b1-4)GlcNAc
# Outline: as §1
# [35] = biological target: Fuc(a1-2)[GalNAc(a1-3)]Gal(b1-4)GlcNAc(b1-2)Man
# Outline: as §1
# [36] = biological target: Fuc(a1-2)[GalNAc(a1-3)]Gal(b1-4)GlcNAc(b1-2)Man(a1-3)[Fuc(a1-2)[GalNAc(a1-3)]Gal(b1-4)GlcNAc(b1-2)Man(a1-6)]Man(b1-4)GlcNAc(b1-4)GlcNAc
# Outline: as §1
# [37] = biological target: Fuc(a1-2)[GalNAc(a1-3)]Gal(b1-4)GlcNAc(b1-2)Man(a1-3)[Fuc(a1-2)[GalNAc(a1-3)]Gal(b1-4)GlcNAc(b1-2)Man(a1-6)]Man(b1-4)GlcNAc(b1-4)[Fuc(a1-6)]GlcNAc
# Outline: as §1
# [38] = biological target: Fuc(a1-2)[GalNAc(a1-3)]Gal(b1-4)GlcNAc(b1-3)Gal(b1-4)GlcNAc
# Outline: as §1
# [39] = biological target: Fuc(a1-2)[GalNAc(a1-3)]Gal(b1-4)GlcNAc(b1-3)Gal(b1-4)GlcNAc(b1-3)Gal(b1-4)GlcNAc
# Outline: as §1
# [40] = biological target: Fuc(a1-2)[GalNAc(a1-3)]Gal(b1-4)GlcNAc(b1-3)GalNAc
# Outline: as §1
# [41] = biological target: Fuc(a1-2)[GalNAc(a1-3)]Gal(b1-4)GlcNAc(b1-3)[Fuc(a1-2)[GalNAc(a1-3)]Gal(b1-4)GlcNAc(b1-6)]GalNAc
# Outline: as §1
# [42] = biological target: Fuc(a1-2)[GalNAc(a1-3)]Gal(b1-4)GlcNAc(b1-6)GalNAc
# Outline: as §1
# [43] = biological target: Fuc(a1-2)[GalNAc(a1-3)]Gal(b1-4)[Fuc(a1-3)]GlcNAc
# Outline: as §1
# [44] = biological target: Fuc(a1-2)[GalNAc(a1-3)]Gal(b1-4)[Fuc(a1-3)]GlcNAc(b1-3)GalNAc
# Outline: as §1
# [45] = biological target: Fuc(a1-2)[GalNAc(a1-4)]Gal(b1-4)GlcNAc
# Outline: as §1
binder,measurement,setting,value
DBA (Dolichos biflorus) (protein) ANIQSFSFKNFNSPSFILQGDATVSSGKLQLTKVKENGFPLRFPSGRAFYSSPIQIYDKFTGAVASWATSFTVKISAPSKASFADGIAFALVPVGSEPRRNGGYLGVFDSDVYNNSAQTVAVEFDTLSNSGWDPSMKHIGIDVNSIKSIATVSWDLANGENAEILITYNAATSLLVVSLVHPSRRTSYILSERVDITNELPEYVGVGFSATTGLSEGYIETHDVLSWSFASRLPDDSTAEPLDLARYLVRNVL,glycan array binding signal (z-score),[1],-0.086
same,glycan array binding signal (z-score),[2],-0.104
same,glycan array binding signal (z-score),[3],0.346
same,glycan array binding signal (z-score),[4],-0.057
same,glycan array binding signal (z-score),[5],-0.191
same,glycan array binding signal (z-score),[6],-0.014
same,glycan array binding signal (z-score),[7],-0.119
same,glycan array binding signal (z-score),[8],-0.084
same,glycan array binding signal (z-score),[9],-0.106
same,glycan array binding signal (z-score),[10],-0.079
same,glycan array binding signal (z-score),[11],-0.036
same,glycan array binding signal (z-score),[12],-0.076
same,glycan array binding signal (z-score),[13],-0.121
same,glycan array binding signal (z-score),[14],-0.095
same,glycan array binding signal (z-score),[15],-0.127
same,glycan array binding signal (z-score),[16],-0.113
same,glycan array binding signal (z-score),[17],-0.043
same,glycan array binding signal (z-score),[18],-0.079
same,glycan array binding signal (z-score),[19],-0.118
same,glycan array binding signal (z-score),[20],-0.113
same,glycan array binding signal (z-score),[21],-0.123
same,glycan array binding signal (z-score),[22],-0.088
same,glycan array binding signal (z-score),[23],0.02
same,glycan array binding signal (z-score),[24],-0.065
same,glycan array binding signal (z-score),[25],0.024
same,glycan array binding signal (z-score),[26],-0.074
same,glycan array binding signal (z-score),[27],-0.154
same,glycan array binding signal (z-score),[28],-0.129
same,glycan array binding signal (z-score),[29],-0.075
same,glycan array binding signal (z-score),[30],-0.144
same,glycan array binding signal (z-score),[31],-0.071
same,glycan array binding signal (z-score),[32],-0.113
same,glycan array binding signal (z-score),[33],0.577
same,glycan array binding signal (z-score),[34],0.575
same,glycan array binding signal (z-score),[35],-0.09
same,glycan array binding signal (z-score),[36],0.179
same,glycan array binding signal (z-score),[37],-0.058
same,glycan array binding signal (z-score),[38],0.057
same,glycan array binding signal (z-score),[39],0.061
same,glycan array binding signal (z-score),[40],-0.1
same,glycan array binding signal (z-score),[41],-0.099
same,glycan array binding signal (z-score),[42],-0.143
same,glycan array binding signal (z-score),[43],0.046
same,glycan array binding signal (z-score),[44],0.333
same,glycan array binding signal (z-score),[45],-0.082
